Measured values taken from the supplement of paper PMC12217912.
The other results are listed elsewhere or left out. The full chains were built here from the parent and the listed change. Inactive controls read about 0.05.

B1: TEV protease; numbered along this chain (parent)
chain: MGESLFKGPRDYNPISSSICHLTNESDGHTTSLYGIGFGPFIITNKHLFRRNNGTLVVQSLHGVFKVKDTTTLQQHLVDGRDMIIIRMPKDFPPFPQKLKFREPQREERICLVTTNFQTKSMSSMVSDTSCTFPSGDGIFWKHWIQTKDGQCGSPLVSTRDGFIVGIHSASNFTNTNNYFTSVPKNFMELLTNQEAQQWVSGWRLNADSVLWGGHKVFMVKPEEPFQPVKEATQL

Variants of: B1
Experiment: raw area under fraction-flipped curve 0-4 h after induction (AUC4h, not background-subtracted), DNA-recorder readout of cleavage of the substrate (dimensionless); higher = more cleavage of the substrate by the protease variant
Settings: temperature: 34 °C; time window: 0-4 h after rhamnose induction
Procedure: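 In vivo DNA recorder in E. coli TOP10(DE3) ΔrhaA at 34 °C. Each TEVp single-site mutant (parent TEVp 0) is paired with a single-site variant of the 7-mer TEVs (canonical ENLYFQ|S). The substrate sits between flexible linkers in a Bxb1-sfGFP-TEVs-SsrA fusion, so cleavage stabilises Bxb1 and speeds flipping of a recombination array, read by NGS. The value is the raw area under the fraction-flipped curve over 0-4 h after rhamnose induction (AUC4h), with ≥20 reads per time point. It is not background-subtracted; inactive controls average about 0.047.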
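Also: Bxb1 expression induced with 0.2% (w/v) L-rhamnose at OD600 near 0.5, cultures sampled hourly, flipped fraction per protease–substrate barcode pair counted by paired-end Illumina sequencing.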

| Variant | area with substrate DNLYFQS | area with substrate FNLYFQS | area with substrate GNLYFQS | area with substrate HNLYFQS | area with substrate MNLYFQS | area with substrate PNLYFQS | area with substrate TNLYFQS | area with substrate WNLYFQS | area with substrate YNLYFQS | area with substrate KNLYFQS | area with substrate QNLYFQS | area with substrate RNLYFQS | area with substrate SNLYFQS | area with substrate INLYFQS | area with substrate LNLYFQS | area with substrate NNLYFQS | area with substrate VNLYFQS |
| --- | --- | --- | --- | --- | --- | --- | --- | --- | --- | --- | --- | --- | --- | --- | --- | --- | --- |
| R50A | 0.0828 | 0.0468 | 0.0732 | 0.0759 | 0.0629 | 0.0688 | 0.0708 | 0.055 | 0.0643 |  |  |  |  |  |  |  |  |
| L73M | 0.085 |  |  | 0.0445 | 0.0599 |  | 0.0532 | 0.0627 | 0.0675 | 0.047 | 0.0501 | 0.0546 | 0.0559 |  |  |  |  |
| T55P | 0.0629 | 0.0798 | 0.052 | 0.0657 | 0.0514 | 0.0746 | 0.0645 | 0.0555 |  |  | 0.0529 |  |  | 0.0596 | 0.08 | 0.0666 |  |
| T55W | 0.082 |  |  | 0.0845 |  | 0.055 | 0.0634 | 0.0564 | 0.0436 | 0.0832 | 0.072 |  |  | 0.0676 | 0.052 | 0.0721 | 0.0888 |
| T55R | 0.0947 |  |  | 0.0567 |  | 0.0792 | 0.061 | 0.06 |  | 0.0665 |  |  | 0.0762 | 0.0667 |  |  | 0.0582 |
| N53P | 0.0715 |  |  | 0.0641 |  | 0.0726 | 0.052 | 0.0665 |  | 0.071 | 0.0742 |  | 0.0522 |  |  | 0.0571 | 0.07 |
| N53K | 0.082 |  | 0.0651 | 0.07 |  | 0.0566 | 0.0702 | 0.0569 | 0.0656 | 0.0566 |  |  | 0.0497 | 0.0712 | 0.0681 | 0.0682 |  |
| T72W | 0.0603 | 0.0591 |  |  |  | 0.0434 | 0.0699 | 0.0522 | 0.059 | 0.0567 |  | 0.0522 | 0.0656 |  |  |  |  |
| T72L | 0.0702 |  |  | 0.065 | 0.0541 | 0.0765 |  | 0.0569 | 0.0666 |  |  |  | 0.0619 |  |  |  |  |
| T72M | 0.0762 | 0.0574 |  | 0.0645 |  |  | 0.0694 |  |  | 0.0402 | 0.0582 |  |  |  |  | 0.0461 |  |
| T72I | 0.0791 | 0.0681 |  |  |  | 0.0683 | 0.0396 |  |  | 0.0665 |  |  |  |  | 0.0634 |  | 0.0462 |
| V57F | 0.0657 |  | 0.0544 | 0.065 |  | 0.0631 | 0.064 | 0.0607 |  |  |  | 0.0516 | 0.0645 | 0.0474 |  | 0.0783 | 0.08 |
| V57H | 0.0602 | 0.0627 |  |  |  | 0.069 | 0.0683 | 0.0821 |  | 0.0869 |  |  |  | 0.0705 | 0.0597 | 0.062 |  |
| V57P | 0.0595 | 0.0503 |  |  | 0.038 |  | 0.0512 | 0.0439 | 0.0394 | 0.0505 |  |  |  | 0.0453 | 0.0464 |  |  |
| L61I | 0.081 |  | 0.0591 | 0.0708 |  |  | 0.044 | 0.058 | 0.0584 | 0.0614 |  |  |  | 0.077 | 0.0737 |  |  |
| L61Y | 0.0689 |  |  | 0.0554 | 0.107 | 0.0727 | 0.0611 | 0.0574 | 0.0716 |  |  |  | 0.0681 | 0.0548 | 0.0633 |  |  |
| D69A | 0.0629 |  |  |  |  |  | 0.0566 | 0.0553 |  |  |  |  |  |  |  |  |  |
| H62E | 0.101 |  | 0.0468 | 0.0705 | 0.0549 | 0.066 | 0.0588 | 0.0546 | 0.061 |  |  |  | 0.0489 | 0.0609 | 0.0892 |  | 0.0607 |
